Reference: US20190248881A1 (PRECITHERA, published 2019)

Columns and labels:
[1] = target: T1, TGF-β2 (UniProt P61812 303-414); assay: SPR; purified peak fraction, cycle 6, TGF-B2
T1 construct: also called TGF-B2; TGFb2
T1 sequence (looked up): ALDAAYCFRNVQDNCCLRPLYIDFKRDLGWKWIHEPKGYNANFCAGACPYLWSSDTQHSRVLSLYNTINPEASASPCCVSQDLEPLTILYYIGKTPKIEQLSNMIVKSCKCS

[2] = target: T2, TGF-β1 (UniProt P01137 fragment); assay: SPR; purified peak fraction, cycle 6, TGF-B1
T2 construct: also called TGF-B1; TGFb1

[3] = target: T1, TGF-β2; assay: SPR; average of cycles 4, 6, 8, TGF-B2
[4] = target: T3, TGF-β3 (UniProt P10600 301-412); assay: SPR; purified peak fraction, cycle 8, TGF-B3
T3 construct: also called TGF-B3; TGFb3
T3 sequence (looked up): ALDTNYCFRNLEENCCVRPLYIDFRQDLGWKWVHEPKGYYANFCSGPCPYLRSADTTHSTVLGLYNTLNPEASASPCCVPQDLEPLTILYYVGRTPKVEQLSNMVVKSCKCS

[5] = target: T2, TGF-β1; assay: SPR; purified peak fraction, cycle 4, TGF-B1
T2 sequence (P01137 279-390 limits assumed): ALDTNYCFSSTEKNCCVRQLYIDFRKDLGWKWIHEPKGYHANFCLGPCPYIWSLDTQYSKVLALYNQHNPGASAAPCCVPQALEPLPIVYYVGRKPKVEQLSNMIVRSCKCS

[6] = target: T2, TGF-β1; assay: SPR; average of cycles 4, 6, 8, TGF-B1
[7] = target: T3, TGF-β3; assay: cell-based or functional assay
[8] = target: T2, TGF-β1; assay: SPR; purified peak fraction, cycle 8, TGF-B1
[9] = target: T3, TGF-β3; assay: SPR; average of cycles 4, 6, 8, TGF-B3
[10] = target: T3, TGF-β3; assay: SPR; purified peak fraction, cycle 4, TGF-B3
[11] = target: T2, TGF-β1; assay: cell-based or functional assay
[12] = target: T1, TGF-β2; assay: cell-based or functional assay
[13] = target: T3, TGF-β3; assay: cell-based or functional assay; remark: listed apart in the source
[14] = target: T3, TGF-β3; assay: SPR; purified peak fraction, cycle 6, TGF-B3
[15] = target: T2, TGF-β1; assay: cell-based or functional assay; remark: listed apart in the source
[16] = target: T1, TGF-β2; assay: SPR; purified peak fraction, cycle 4, TGF-B2
[17] = target: T1, TGF-β2; assay: SPR; purified peak fraction, cycle 8, TGF-B2
[18] = target: T2, TGF-β1; assay: cell-based or functional assay; remark: listed apart in the source
[19] = target: T1, TGF-β2; assay: cell-based or functional assay; remark: listed apart in the source
[20] = target: T3, TGF-β3; assay: cell-based or functional assay; remark: listed apart in the source
[21] = target: T3, TGF-β3; assay: SPR (adjusted sensorgram), TGF-β3 surface, dilution series of PCT-0015 SEC fractions from column #1
[22] = target: T1, TGF-β2; assay: SPR; SEC fraction 15 of PCT-0015 over TGF-β2 surface
[23] = target: T3, TGF-β3; assay: SPR; SEC fraction 14 of PCT-0015 over TGF-β3 surface
[24] = target: T3, TGF-β3; assay: SPR; SEC fraction 15 of PCT-0015 over TGF-β3 surface
[25] = target: T1, TGF-β2; assay: SPR; SEC fraction 14 of PCT-0015 over TGF-β2 surface
[26] = target: T1, TGF-β2; assay: SPR (adjusted sensorgram), TGF-β2 surface, dilution series of PCT-0015 SEC fractions from column #1
[27] = target: T2, TGF-β1; assay: SPR; SEC fraction 15 of PCT-0015 over TGF-β1 surface
[28] = target: T2, TGF-β1; assay: SPR; SEC fraction 14 of PCT-0015 over TGF-β1 surface

B1: PCT-0016NT (Fc fusion)
chain: [in this place human IgG1 Fc]GGGGSGGGGSGGGGSGNGAVKFPQLCKFCDVRFSTCDNQKSCMSNCSITSICEKPQEVCVAVWRKNDENITLETVCHDPKLPYHDFILEDAASPKCIMKEKKKPGETFFMCSCSSDECNDNIIFSEEYNTSNPDGLGPVESSPGHGLDTAAAGPEPSTRCELSPINASHPVQALMESFTVLSGCASHGTTGLPREVHVLNLRSTDQGPGQRQREVTLHLNPIASVHTHHKPIVFLLNSPQPLVWRLKTERLAAGVPRLFLVSEGSVVQFPSGNFSLTAETEERNFPQENEHLLRWAQKEYGAVTSFTELKIARNIYIKVGEDQVFPPTCNIGKNFLSLNYLAEYLQPKAAEGCVLPSQPHEKEVHIIELITPSSNPYSAFQVDIIVDIRPAQEDPEVVKNLVLILKSKKSVNWVIKSFDVKGNLKVIAPNSIGFGKESERSMTMTKLVRDDIPSTQENLMKWALDAGYRPVTSYTMAPVANRFHLRLENNEEMRDEEVHTIPPELRILLDPDKLPQLCKFCDVRFSTCDNQKSCMSNCSITSICEKPQEVCVAVWRKNDENITLETVCHDPKLPYHDFILEDAASPKCIMKEKKKPGETFFMCSCSSDECNDNIIFSEEYNTSNPD
Kd [1]: 0.0172 nM
koff [1]: 1.08e-05 s⁻¹
kon [1]: 624000 M⁻¹ s⁻¹
Kd [2]: 0.0313 nM
koff [2]: 1.75e-05 s⁻¹
kon [2]: 559000 M⁻¹ s⁻¹
Kd [3]: 0.0279 nM
koff [3]: 1.46e-05 s⁻¹
kon [3]: 549000 M⁻¹ s⁻¹
Kd [4]: 0.0685 nM
koff [4]: 2.99e-05 s⁻¹
kon [4]: 437000 M⁻¹ s⁻¹
Kd [5]: 0.0496 nM
koff [5]: 2.58e-05 s⁻¹
kon [5]: 521000 M⁻¹ s⁻¹
Kd [6]: 0.041 nM
koff [6]: 2.26e-05 s⁻¹
kon [6]: 553000 M⁻¹ s⁻¹
IC50 (read off the curve) [7]: ~3 pM
Kd [8]: 0.0423 nM
koff [8]: 2.45e-05 s⁻¹
kon [8]: 580000 M⁻¹ s⁻¹
Kd [9]: 0.0675 nM
koff [9]: 2.85e-05 s⁻¹
kon [9]: 422000 M⁻¹ s⁻¹
Kd [10]: 0.0714 nM
koff [10]: 2.93e-05 s⁻¹
kon [10]: 410000 M⁻¹ s⁻¹
EC50, TGF-β isoform neutralization [11]: 0.0065 nM
EC50, TGF-β isoform neutralization [12]: 0.0041 nM
EC50, TGF-β isoform neutralization [13]: 3.2 pM
Kd [14]: 0.0627 nM
koff [14]: 2.64e-05 s⁻¹
kon [14]: 420000 M⁻¹ s⁻¹
IC50 (read off the curve) [15]: ~3 pM
Kd [16]: 0.0385 nM
koff [16]: 1.59e-05 s⁻¹
kon [16]: 414000 M⁻¹ s⁻¹
Kd [17]: 0.028 nM
koff [17]: 1.71e-05 s⁻¹
kon [17]: 610000 M⁻¹ s⁻¹

B2: PCT-0020 (Fc fusion)
chain: NGAVKFPQLCKFCDVRFSTCDNQKSCMSNCSITSICEKPQEVCVAVWRKNDENITLETVCHDPKLPYHDFILEDAASPKCIMKEKKKPGETFFMCSCSSDECNDNIIFSEEYNTSNPDGLGPVESSPGHGLDTAAAGPEPSTRCELSPINASHPVQALMESFTVLSGCASHGTTGLPREVHVLNLRSTDQGPGQRQREVTLHLNPIASVHTHHKPIVFLLNSPQPLVWRLKTERLAAGVPRLFLVSEGSVVQFPSGNFSLTAETEERNFPQENEHLLRWAQKEYGAVTSFTELKIARNIYIKVGEDQVFPPTCNIGKNFLSLNYLAEYLQPKAAEGCVLPSQPHEKEVHIIELITPSSNPYSAFQVDIIVDIRPAQEDPEVVKNLVLILKSKKSVNWVIKSFDVKGNLKVIAPNSIGFGKESERSMTMTKLVRDDIPSTQENLMKWALDAGYRPVTSYTMAPVANRFHLRLENNEEMRDEEVHTIPPELRILLDPDKLPQLCKFCDVRFSTCDNQKSCMSNCSITSICEKPQEVCVAVWRKNDENITLETVCHDPKLPYHDFILEDAASPKCIMKEKKKPGETFFMCSCSSDECNDNIIFSEEYNTSNPDLLLVIFQVTGISLLPPLGGGGS[in this place human IgG1 Fc]DDDDDDDDDD
EC50 for neutralization of TGF-β [18]: 8.8 picomol/L
EC50 for neutralization of TGF-β [19]: 55.5 picomol/L
EC50 for neutralization of TGF-β [20]: 8 picomol/L
EC50, TGF-β isoform neutralization [11]: 0.0171 nM
Fold 0020/0016 (EC50 ratio against PCT-0016NT) [11]: 2.6 fold
EC50, TGF-β isoform neutralization [12]: 0.071 nM
Fold 0020/0016 (EC50 ratio against PCT-0016NT) [12]: 17.4 fold
EC50, TGF-β isoform neutralization [13]: 10.5 pM
Fold 0020/0016 (EC50 ratio against PCT-0016NT) [13]: 3.3 fold

B3: PCT-0026 (Fc fusion)
chain: ADNGAVKFPQLCKFCDVRFSTCDNQKSCMSNCSITSICEKPQEVCVAVWRKNDENITLETVCHDPKLPYHDFILEDAASPKCIMKEKKKPGETFFMCSCSSDECNDNIIFSEEYNTSNPDGLGPVESSPGHGLDTAAAGPEPGALCELSPVSASHPVQALMESFTVLSGCASRGTTGLPQEVHVLNLRTAGQGPGQLQREVTLHLNPISSVHIHHKSVVFLLNSPHPLVWHLKTERLATGVSRLFLVSEGSVVQFSSANFSLTAETEERNFPHGNEHLLNWARKEYGAVTSFTELKIARNIYIKVGEDQVFPPKCNIGKNFLSLNYLAEYLQPKAAEGCVMSSQPQNEEVHIIELITPNSNPYSAFQVDITIDIRPSQEDLEVVKNLILILKSKKSVNWVIKSFDVKGSLKIIAPNSIGFGKESERSMTMTKSIRDDIPSTQGNLVKWALDNGYSPITSYTMAPVANRFHLRLENNEEMGDEEVHTIPPELRILLDPGALPQLCKFCDVRFSTCDNQKSCMSNCSITSICEKPQEVCVAVWRKNDENITLETVCHDPKLPYHDFILEDAASPKCIMKEKKKPGETFFMCSCSSDECNDNIIFSEEYNTSNPDLLLVIFQVTGISLLPPLGGGGS[in this place human IgG1 Fc]DDDDDDDDDD
EC50 for neutralization of TGF-β [18]: 1.9 picomol/L
EC50 for neutralization of TGF-β [19]: 105 picomol/L
EC50 for neutralization of TGF-β [20]: 4.2 picomol/L

B4: PCT-0015 HMW SEC fractions (fractions 14 and 15) (Fc fusion)
chain: NGAVKFPQLCKFCDVRFSTCDNQKSCMSNCSITSICEKPQEVCVAVWRKNDENITLETVCHDPKLPYHDFILEDAASPKCIMKEKKKPGETFFMCSCSSDECNDNIIFSEEYNTSNPDGLGPVESSPGHGLDTAAAGPEPSTRCELSPINASHPVQALMESFTVLSGCASHGTTGLPREVHVLNLRSTDQGPGQRQREVTLHLNPIASVHTHHKPIVFLLNSPQPLVWRLKTERLAAGVPRLFLVSEGSVVQFPSGNFSLTAETEERNFPQENEHLLRWAQKEYGAVTSFTELKIARNIYIKVGEDQVFPPTCNIGKNFLSLNYLAEYLQPKAAEGCVLPSQPHEKEVHIIELITPSSNPYSAFQVDIIVDIRPAQEDPEVVKNLVLILKSKKSVNWVIKSFDVKGNLKVIAPNSIGFGKESERSMTMTKLVRDDIPSTQENLMKWALDAGYRPVTSYTMAPVANRFHLRLENNEEMRDEEVHTIPPELRILLDPDKLPQLCKFCDVRFSTCDNQKSCMSNCSITSICEKPQEVCVAVWRKNDENITLETVCHDPKLPYHDFILEDAASPKCIMKEKKKPGETFFMCSCSSDECNDNIIFSEEYNTSNPDTGGG[in this place human IgG1 Fc]DDDDDDDDDD
notes: High molecular weight bands (>=240 kDa, non-reducing) of Protein A purified PCT-0015 after Superose 6 SEC; also called 1F14; 1F15
Kd [21]: 0.638 nM
Kd [22]: 0.805 nM
koff [22]: 0.000512 s⁻¹
kon [22]: 636000 M⁻¹ s⁻¹
Kd [23]: 1.31 nM
koff [23]: 0.000441 s⁻¹
kon [23]: 338000 M⁻¹ s⁻¹
Kd [24]: 0.638 nM
koff [24]: 0.000234 s⁻¹
kon [24]: 366000 M⁻¹ s⁻¹
Kd [25]: 1.9 nM
koff [25]: 0.000724 s⁻¹
kon [25]: 381000 M⁻¹ s⁻¹
Kd [26]: 0.805 nM
Kd [27]: 1.08 nM
koff [27]: 0.000453 s⁻¹
kon [27]: 420000 M⁻¹ s⁻¹
Kd [28]: 1.92 nM
koff [28]: 0.000551 s⁻¹
kon [28]: 288000 M⁻¹ s⁻¹
